# Data reported in the supplement of paper PMC4604168 (melanoma cell lines).
# The list shows a part of the results. Most values come without repeats; read them as rough.
# Tests used:
# Experiment in all cases: cell count relative to DMSO control; melanoma cells; higher = more viable cells
# Conditions in all cases: library dose: standard library concentration; 72 h
# [1] = system: G361
# [2] = system: IPC-298
# [3] = system: IST-MEL1
# [4] = system: LOXIMVI
# [5] = system: MEL-HO
# [6] = system: MeWo
# [7] = system: RPMI7951
# [8] = system: RVH-421
# [9] = system: SkMel28
# [10] = system: SkMel2
# [11] = system: SkMel30
# [12] = system: SkMel5
# [13] = system: UACC257
# [14] = system: UACC62
# [15] = system: WM115
# [16] = system: WM1716
# [17] = system: WM1745
# [18] = system: WM3526
# [19] = system: LB2518-MEL
# [20] = system: MZ2-MEL
# 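Also: cells treated in 1,536-well plates, then fixed and DAPI-stained, with nuclei counted from automated high-throughput microscope images.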
Compound,cell count [1] [%],cell count [2] [%],cell count [3] [%],cell count [4] [%],cell count [5] [%],cell count [6] [%],cell count [7] [%],cell count [8] [%],cell count [9] [%],cell count [10] [%],cell count [11] [%],cell count [12] [%],cell count [13] [%],cell count [14] [%],cell count [15] [%],cell count [16] [%],cell count [17] [%],cell count [18] [%],cell count [19] [%],cell count [20] [%]
"C[As](C)SC[C@H](NC(=O)CC[C@H](N)C(=O)O)C(=O)NCC(=O)O [Darinaparsin] + COc1ccc(Cl)c(Nc2nc3ccccc3nc2NS(=O)(=O)c2cccc(NC(=O)C(C)(C)N)c2)c1 [XL147] (first compound 2 µM, partner dose 4 µM)",79.2,74.1,64.2,90.5,60.3,70.2,92.9,64.7,96.8,97.3,92.3,66.6,86.2,57.7,101,68.6,85.1,74.8,–,–
"Cn1cc(C2=C(c3cn(C4CCN(Cc5ccccn5)CC4)c4ccccc34)C(=O)NC2=O)c2ccccc21 [Enzastaurin] + N.N.[Cl][Pt][Cl] [cisplatin] (first compound 4 µM, partner dose 8 µM)",110,107,97.3,80.5,95.9,115,121,83.4,121,115,95.3,99.7,107,120,110,104,87.2,123,–,–
"N.N.[Cl][Pt][Cl] [cisplatin] + O=C(Nc1ccccc1)c1cc([N+](=O)[O-])ccc1Cl [GW9662] (first compound 8 µM, partner dose 10 µM)",91.9,96.8,86,52.7,82.4,74.6,78.9,23.1,53.5,79.2,87.1,80.8,62.8,82.8,83.5,97.6,–,84.5,70.1,82.8
"N.N.[Cl][Pt][Cl] [cisplatin] + c1cc(-c2cnn3cc(-c4ccc(OCCN5CCCCC5)cc4)cnc23)ccn1 [Dorsomorphin] (first compound 8 µM, partner dose 2 µM)",70.2,87.1,84.7,88.6,81.2,78.7,46.1,81.8,60.1,86.8,74.9,55,75.8,76,50.6,80.8,–,89.6,78.4,71.3
"C[As](C)SC[C@H](NC(=O)CC[C@H](N)C(=O)O)C(=O)NCC(=O)O [Darinaparsin] + C/C(O)=C(\C#N)C(=O)Nc1cc(Br)ccc1Br [LFM-A13] (first compound 2 µM, partner dose 10 µM)",75.9,83.1,81.5,81.7,78.7,67.6,65.1,79.2,68.1,–,77.4,64.3,78.1,86.1,77.3,66.8,84.3,76.5,–,–
"C[C@]12O[C@H](C[C@]1(O)CO)n1c3ccccc3c3c4c(c5c6ccccc6n2c5c31)CNC4=O [Lestaurtinib] + C[As](C)SC[C@H](NC(=O)CC[C@H](N)C(=O)O)C(=O)NCC(=O)O [Darinaparsin] (first compound 0.02 µM, partner dose 2 µM)",82.4,75.5,105,58.9,79.2,78.9,180,94.1,101,103,95.6,55.4,82.2,87.7,68.1,74.3,100,72.6,–,–
"N.N.[Cl][Pt][Cl] [cisplatin] + N#Cc1c(O)c2c(-c3ccc(-c4ccccc4O)cc3)csc2[nH]c1=O [A769662] (first compound 8 µM, partner dose 10 µM)",92.7,104,96.4,95.2,86.4,85.9,84.9,96.5,116,105,89.5,93.6,72.5,99.5,95.5,92.7,–,86.7,89.8,105
"C[C@]12O[C@H](C[C@]1(O)CO)n1c3ccccc3c3c4c(c5c6ccccc6n2c5c31)CNC4=O [Lestaurtinib] + Cc1nc(Nc2ncc(C(=O)Nc3c(C)cccc3Cl)s2)cc(N2CCN(CCO)CC2)n1 [dasatanib] (first compound 0.02 µM, partner dose 0.02 µM)",64,84.9,71.5,25,62.6,78,26.3,69.8,55.8,97.3,79.5,57.1,78,86.3,68.5,66.9,36.7,73.1,–,–
"Cn1cc(C2=C(c3cn(C4CCN(Cc5ccccn5)CC4)c4ccccc34)C(=O)NC2=O)c2ccccc21 [Enzastaurin] + COc1ccc(COc2ccc(Cc3cnc(N)nc3N)cc2OC)cc1 [GW2580] (first compound 4 µM, partner dose 5 µM)",81.2,91.9,86.4,89.9,82.1,91.4,61.2,63.1,78,80.9,105,72.4,82.4,77.8,118,68.1,–,91.1,58.7,106
